Measurements: the RNAGym collection of RNA variant scans (doi:10.7554/elife.90254)
The source gives no read counts; variants with many changes may rest on few reads.

B1: LINE1-full (parent)
chain: UACGUAGGUGGUUUUCCCCUGAUAGUGCUAAGGGGGCCUGGAAGUUUGGACUGGGCAGAGCUCAACACAGCGUGGCAAAGUGGCUGUGGCUAGACUGCCUCUCUGGAUUCCUCGUCACUCAGCAGGGCAUCUCUGAGAGAAAUGCC

Variants of: B1
Test: self-cleavage, relative activity (ratio to wild type); higher = more cleavage; in vitro, sequencing; the parent is a self-cleaving ribozyme
In the case of U13A C18U A22G C131G, the self-cleavage is reported as 0.24.
Work on A30G C90U G122A yielded a self-cleavage of 0.08.
Variant A22G C38U A64G G70C has a self-cleavage of 0.17.
Work on U5G A43U U52C A78G yielded a self-cleavage of 1.38.
Work on A31U A69U U100C C111A A142G yielded a self-cleavage of 0.06.
Work on G7A U12G U73A A78G yielded a self-cleavage of 0.41.
Work on U46A U52C A57U G86U U96A yielded a self-cleavage of 0.02.
A59G A107U A142G gave a self-cleavage of 0.07.
In the case of A31G G86A U96C, the self-cleavage is reported as 0.
For A65U A124G U134C, the self-cleavage was 0.
With U9C A57U U104A U134G the self-cleavage was 0.14.
With G49A U102C U115C the self-cleavage was 0.28.
A77U U104C A124C showed a self-cleavage of 1.93.
For A50G G89A A140U, the self-cleavage was 0.02.
With U1C U115A U143A the self-cleavage was 0.94.
Work on U26C A43G U143A yielded a self-cleavage of 1.07.
Variant U12G A43C A57U G82A U85C U87A U102C U109A A117U has a self-cleavage of 0.
G4C A78U U109C U134A gave a self-cleavage of 2.3.
U73C A79G A124G showed a self-cleavage of 0.
U85A A121C A129U gave a self-cleavage of 0.06.
U14C U47G C101A U115C A117C showed a self-cleavage of 1.6.
Variant U5C U14A A42G A117U has a self-cleavage of 0.68.
In the case of G33U A94G U104C U115C, the self-cleavage is reported as 0.
Work on U12C U15C U20A U134C yielded a self-cleavage of 0.79.
With A67G U73A U87C A107G the self-cleavage was 0.
In the case of G32U G36A A64U, the self-cleavage is reported as 0.46.
For U15A C18U U73A U81A, the self-cleavage was 1.18.
Work on U13C G88A G93U yielded a self-cleavage of 0.04.
Work on U13A A107G A142G yielded a self-cleavage of 1.28.
With U9A C19U A77G U119G the self-cleavage was 0.95.
A43C U45C U81C gave a self-cleavage of 0.
U14C U62C A117G G126A C146U gave a self-cleavage of 0.11.
U46A U62C U91A A92G showed a self-cleavage of 0.03.
Variant A65G U73C A121G has a self-cleavage of 0.
Variant G10C U20C A43G U115A has a self-cleavage of 1.06.
With U14C U26A A78G the self-cleavage was 0.56.
With U13C U23A U62C A94U U102C U112G C113U G137U the self-cleavage was 0.
Work on A31G U47C G125U yielded a self-cleavage of 1.38.
U13C U62C U87A showed a self-cleavage of 0.1.
With U12A A64U U87C A94G U119C the self-cleavage was 0.
For A31G U119C A124G, the self-cleavage was 0.
U46C U115C U134C gave a self-cleavage of 1.59.
Work on U12C A43G U85C C128U yielded a self-cleavage of 0.36.
With G4A G88A A142G the self-cleavage was 0.11.
Work on U62A C66A A78U C90U U102C A124U yielded a self-cleavage of 0.04.
For U12G G25A A57G G97A A107U U115C, the self-cleavage was 0.16.
Work on G7C U12C U47A G48U A129G U132C A140U yielded a self-cleavage of 1.19.
In the case of U62C A67G U132C A141G, the self-cleavage is reported as 0.
Work on A2U A59U A140G yielded a self-cleavage of 0.48.
Variant U47A U96A U108C has a self-cleavage of 0.01.
Variant A67G U102C A136G has a self-cleavage of 0.64.
Variant U20C A94C A124G has a self-cleavage of 0.
Variant A6G U15C G106A has a self-cleavage of 1.35.
A2G U47A G74C U115A showed a self-cleavage of 0.57.
Work on U52A U85A G106A A121U yielded a self-cleavage of 0.07.
With A42G A92G U119G the self-cleavage was 0.
Work on U29C A57G U73C A94G C99U A140G yielded a self-cleavage of 0.54.
Variant U73C G89A U100C U134C has a self-cleavage of 0.06.
U14C A78G U130C gave a self-cleavage of 0.92.
In the case of U12C U47C U130C, the self-cleavage is reported as 2.72.
U62C A107G U112C showed a self-cleavage of 0.19.
For U39C A42G U47C U73A C120U A121U, the self-cleavage was 2.61.
A79U G89A G105A gave a self-cleavage of 0.04.
In the case of A24G U47A A117G A142G, the self-cleavage is reported as 1.38.
A67G U87G A138G showed a self-cleavage of 0.27.
A64G U73A A129G U132A gave a self-cleavage of 0.52.
A31U A42G G74U showed a self-cleavage of 1.13.
U14C A22G U47A U108C C133U U143C showed a self-cleavage of 1.61.
Variant U39C U47G A142G has a self-cleavage of 1.05.
In the case of U9A A67G U132C, the self-cleavage is reported as 0.81.
In the case of A50U U62C G82A, the self-cleavage is reported as 0.03.
U12C U81A U100C gave a self-cleavage of 2.71.
Variant U73C U91A A117U A142G has a self-cleavage of 1.15.
In the case of U108C A124G A141G, the self-cleavage is reported as 2.83.
In the case of U15A U52C A142G, the self-cleavage is reported as 0.92.
In the case of U14G U45A U108A, the self-cleavage is reported as 0.66.
In the case of U46A U81A A117G, the self-cleavage is reported as 1.74.
For U13C U20A U87A U102C, the self-cleavage was 0.03.
Work on U20C A42G U91A yielded a self-cleavage of 0.61.
Work on U26C U29C U62C U91A A142G yielded a self-cleavage of 0.26.
G34U A42G A57G U87A gave a self-cleavage of 0.18.
In the case of G7U A69G U102C U132C, the self-cleavage is reported as 0.33.
Variant U13C U73G A79G has a self-cleavage of 0.
For A31U G75C U115A A121G A129G, the self-cleavage was 1.02.
